Data published in the supplement of paper PMC4604168 (melanoma cell lines).
The other results are listed elsewhere or left out. Single values are uncertain, as repeats are few or missing.

system: SkMel28; assay: cell count relative to DMSO control; melanoma cells; higher = more viable cells; conditions: library dose: standard library concentration; 72 h
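Further: cells treated in 1,536-well plates, then fixed and DAPI-stained, with nuclei counted from automated high-throughput microscope images.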

Row | Compound | cell count [%]
1 | O=C(CCCCCCC(=O)Nc1ccccc1)NO [vorinostat] + O=S(=O)(c1ccccc1)N(CC(F)(F)F)c1ccc(C(O)(C(F)(F)F)C(F)(F)F)cc1 [T0901317] (first compound 0.4 µM, partner dose 7 µM) | 72.1
2 | Nc1cccc2c1CN(C1CCC(=O)NC1=O)C2=O (centres undefined) [lenalidomide] + Cn1cncc1[C@@](N)(c1ccc(Cl)cc1)c1ccc2c(c1)c(-c1cccc(Cl)c1)cc(=O)n2C [tipifarnib] (first compound 5 µM, partner dose 0.05 µM) | 72.8
3 | COCC[n+]1c2c(n(Cc3cnccn3)c1C)C(=O)c1ccccc1C2=O + Cn1cncc1[C@@](N)(c1ccc(Cl)cc1)c1ccc2c(c1)c(-c1cccc(Cl)c1)cc(=O)n2C [tipifarnib] (first compound 0.002 µM, partner dose 0.05 µM) | 34.4
4 | Cn1c(Nc2ccc(C(F)(F)F)cc2)nc2cc(Oc3ccnc(-c4ncc(C(F)(F)F)[nH]4)c3)ccc21 + Oc1nc(-c2ccc(C(F)(F)F)cc2)nc2c1CSCC2 [XAV939] (first compound 0.4 µM, partner dose 10 µM) | 30.1
5 | Clc1ccc(Nc2nnc(Cc3ccncc3)c3ccccc23)cc1 [vatalanib] + C=CCn1c(=O)c2cnc(Nc3ccc(N4CCN(C)CC4)cc3)nc2n1-c1cccc(C(C)(C)O)n1 [MK1775] (first compound 10 µM, partner dose 0.1 µM) | 39.9
6 | OCc1c[nH]c2ccccc12 [Indole-3-carbinol] + C[C@@H]1CCN(C(=O)CC#N)C[C@@H]1N(C)c1ncnc2[nH]ccc12 [CP690550] (first compound 4 µM, partner dose 5 µM) | 143
7 | Cn1c(Nc2ccc(C(F)(F)F)cc2)nc2cc(Oc3ccnc(-c4ncc(C(F)(F)F)[nH]4)c3)ccc21 + Nc1cccc2c1CN(C1CCC(=O)NC1=O)C2=O [lenalidomide] (first compound 0.4 µM, partner dose 5 µM) | 40.3
8 | COCC[n+]1c2c(n(Cc3cnccn3)c1C)C(=O)c1ccccc1C2=O + O=C(O)C(=O)Nc1sc2c(c1C(=O)O)CCNC2 [TCS401] (first compound 0.002 µM, partner dose 8.33333 µM) | 31.9
9 | C#Cc1cccc(Nc2ncnc3cc(OCCOC)c(OCCOC)cc23)c1 [erlotinib] + O=C(Nc1cccc(Cl)c1)Nc1ncc(CCNc2ncnc3ccsc23)s1 [SNS314] (first compound 4 µM, partner dose 0.004 µM) | 38.1
10 | Cn1c(Nc2ccc(C(F)(F)F)cc2)nc2cc(Oc3ccnc(-c4ncc(C(F)(F)F)[nH]4)c3)ccc21 + COc1ccc2c(c1)CCC1C2CCC2(C)C(NCCCCCCN3C(=O)C=CC3=O)CCC12 [U73122] (first compound 0.4 µM, partner dose 2 µM) | 25.2
11 | Nc1cccc2c1CN(C1CCC(=O)NC1=O)C2=O (centres undefined) [lenalidomide] + O=S(=O)(c1ccccc1)N(CC(F)(F)F)c1ccc(C(O)(C(F)(F)F)C(F)(F)F)cc1 [T0901317] (first compound 5 µM, partner dose 7 µM) | 65.6
12 | OCc1c[nH]c2ccccc12 [Indole-3-carbinol] + O=C(CCCCCCC(=O)Nc1ccccc1)NO [vorinostat] (first compound 4 µM, partner dose 0.4 µM) | 49.2
13 | Nc1cccc2c1CN(C1CCC(=O)NC1=O)C2=O (centres undefined) [lenalidomide] + COc1ccc(COc2ccc(Cc3cnc(N)nc3N)cc2OC)cc1 [GW2580] (first compound 5 µM, partner dose 5 µM) | 74.1
14 | C#Cc1cccc(Nc2ncnc3cc(OCCOC)c(OCCOC)cc23)c1 [erlotinib] + COc1cc2ncnc(Nc3ccc(Oc4ccccc4)cc3)c2cc1OC [SrcI1] (first compound 4 µM, partner dose 10 µM) | 44.1
15 | OCc1c[nH]c2ccccc12 [Indole-3-carbinol] + CC1(C)NC(=O)N(c2ccc([N+](=O)[O-])c(C(F)(F)F)c2)C1=O [nilutamide] (first compound 4 µM, partner dose 5 µM) | 110
16 | OCc1c[nH]c2ccccc12 [Indole-3-carbinol] + CN(NC(=O)CC(=O)NN(C)C(=S)c1ccccc1)C(=S)c1ccccc1 [STA4783] (first compound 4 µM, partner dose 0.03 µM) | 17.3
17 | Clc1ccc(Nc2nnc(Cc3ccncc3)c3ccccc23)cc1 [vatalanib] + Cc1cc(N2CCOCC2)cc2[nH]c(-c3c(NC[C@@H](O)c4cccc(Cl)c4)cc[nH]c3=O)nc12 [BMS536924] (first compound 10 µM, partner dose 1 µM) | 104

Row | Compound | cell count [%]
18 | O=C(CCCCCCC(=O)Nc1ccccc1)NO [vorinostat] + O=C(O)C(=O)Nc1sc2c(c1C(=O)O)CCNC2 [TCS401] (first compound 0.4 µM, partner dose 8.33333 µM) | 48.4
19 | Nc1cccc2c1CN(C1CCC(=O)NC1=O)C2=O (centres undefined) [lenalidomide] + CN(C)S(=O)(=O)c1ccc2c(c1)/C(=C/c1cc3c([nH]1)CCCC3)C(=O)N2 [SU6656] (first compound 5 µM, partner dose 2 µM) | 63.1
20 | Nc1cccc2c1CN(C1CCC(=O)NC1=O)C2=O (centres undefined) [lenalidomide] + COC(=O)c1sccc1S(=O)(=O)Nc1ccc(Nc2ccccc2)cc1OC [GSK0660] (first compound 5 µM, partner dose 5 µM) | 77.4
21 | Nc1cccc2c1CN(C1CCC(=O)NC1=O)C2=O (centres undefined) [lenalidomide] + N#Cc1c(O)c2c(-c3ccc(-c4ccccc4O)cc3)csc2[nH]c1=O [A769662] (first compound 5 µM, partner dose 10 µM) | 68.2
22 | COCC[n+]1c2c(n(Cc3cnccn3)c1C)C(=O)c1ccccc1C2=O + COc1ccc(COc2ccc(Cc3cnc(N)nc3N)cc2OC)cc1 [GW2580] (first compound 0.002 µM, partner dose 5 µM) | 96.8
23 | Cn1c(Nc2ccc(C(F)(F)F)cc2)nc2cc(Oc3ccnc(-c4ncc(C(F)(F)F)[nH]4)c3)ccc21 + Cc1cc(N2CCOCC2)cc2[nH]c(-c3c(NC[C@@H](O)c4cccc(Cl)c4)cc[nH]c3=O)nc12 [BMS536924] (first compound 0.4 µM, partner dose 1 µM) | 20.5
24 | COCC[n+]1c2c(n(Cc3cnccn3)c1C)C(=O)c1ccccc1C2=O + Oc1cc(-c2nc(-c3ccccc3)[nH]c2-c2ccncc2)ccc1Cl [L779450] (first compound 0.002 µM, partner dose 1 µM) | 39.5
25 | C#Cc1cccc(Nc2ncnc3cc(OCCOC)c(OCCOC)cc23)c1 [erlotinib] + O=C1NC(=O)/C(=C/c2ccc(-c3ccc(F)cc3O)o2)S1 [AS252424] (first compound 4 µM, partner dose 5 µM) | 63.6
26 | Cn1c(Nc2ccc(C(F)(F)F)cc2)nc2cc(Oc3ccnc(-c4ncc(C(F)(F)F)[nH]4)c3)ccc21 + NCC(=O)Nc1ccc(-n2nc(C(F)(F)F)cc2-c2ccc3c(ccc4ccccc43)c2)cc1 [OSU03012] (first compound 0.4 µM, partner dose 5 µM) | 22.3
27 | C#Cc1cccc(Nc2ncnc3cc(OCCOC)c(OCCOC)cc23)c1 [erlotinib] + COc1ccc2c(c1)CCC1C2CCC2(C)C(NCCCCCCN3C(=O)C=CC3=O)CCC12 [U73122] (first compound 4 µM, partner dose 2 µM) | 45.5
28 | Clc1ccc(Nc2nnc(Cc3ccncc3)c3ccccc23)cc1 [vatalanib] + OCCn1cc(-c2cnc3nnn(Cc4ccc5ncccc5c4)c3n2)cn1 [PF04217903] (first compound 10 µM, partner dose 5 µM) | 87.5
29 | Nc1cccc2c1CN(C1CCC(=O)NC1=O)C2=O (centres undefined) [lenalidomide] + COc1ccc(-c2ccc3c(N4CCOCC4)nc(N4C[C@@H](C)O[C@@H](C)C4)nc3n2)cc1CO [KU0063794] (first compound 5 µM, partner dose 0.1 µM) | 53.3
30 | O=C(CCCCCCC(=O)Nc1ccccc1)NO [vorinostat] + C[C@@H]1CCN(C(=O)CC#N)C[C@@H]1N(C)c1ncnc2[nH]ccc12 [CP690550] (first compound 0.4 µM, partner dose 5 µM) | 55.3
31 | COCC[n+]1c2c(n(Cc3cnccn3)c1C)C(=O)c1ccccc1C2=O + N#Cc1c(O)c2c(-c3ccc(-c4ccccc4O)cc3)csc2[nH]c1=O [A769662] (first compound 0.002 µM, partner dose 10 µM) | 72.1
32 | Nc1cccc2c1CN(C1CCC(=O)NC1=O)C2=O (centres undefined) [lenalidomide] + O=C(Nc1ccccc1)c1cc([N+](=O)[O-])ccc1Cl [GW9662] (first compound 5 µM, partner dose 10 µM) | 62
33 | O=C(CCCCCCC(=O)Nc1ccccc1)NO [vorinostat] + CC(C)CCN1c2nc(Nc3cc(F)c(O)c(F)c3)ncc2N(C)C(=O)C1C [BID1870] (first compound 0.4 µM, partner dose 1 µM) | 43.3
34 | OCc1c[nH]c2ccccc12 [Indole-3-carbinol] + COCC[n+]1c2c(n(Cc3cnccn3)c1C)C(=O)c1ccccc1C2=O [YM155] (first compound 4 µM, partner dose 0.002 µM) | 35
